# “And” between values parts separate entries of the source, which are not always exact repeats. Equal entries are not always repeated. The shares of active, inactive and inconclusive entries below differ from those in the screen. A potency beside an inconclusive call is a rough fit, not a confirmed value. The source made the active and inactive calls. Calls follow the shape of the dose curve; as a rule, active = well fitted curve in the direction sought with a large enough effect in the repeat runs; inconclusive = weak or mixed curves; inactive = no such curve, though single readings can be large; an effect the other way counts as inactive or inconclusive.
# Assay: qHTS assay to identify small molecule antagonists of the retinoid acid receptor (RAR) signaling pathway - cell viability counter screen (AID 1159551); also: nearly all actives have a fitted effect of over 35% in size
# Settings: C3RL4 cells viability, ATP luminescence (CellTiter-Glo), 6 h; series mostly up to 92.4 µM; activity change, negative = cytotoxicity: at the top concentration
# Summary of the method: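 Cytotoxicity counter screen in C3RL4 cells: 6 h compound exposure with 1 uM retinol (final), viability from cellular ATP by luminescence.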
# % is scaled to controls: 0 for no effect and ±100 for the full control effect; potency is read from the fitted curve at half-maximal effect; tags tell the direction and shape of the fitted curve.
Structure (SMILES),Potency,"activity change, negative = cytotoxicity"
CSc1ccc(C=O)cc1,"inconclusive: 27.2 µM [rising, partial curve, poor fit]",–
NC(Cc1c[nH]c2ccccc12)C(=O)O (stereo not drawn),–,inactive: -0.103% [at 42.5 µM]
CC(=O)C=O,–,inactive: -0.634%
CSc1ccc(Cl)cc1,inactive,–
CC(C)c1ccccc1,–,inactive: -0.42%
CCN(Cc1cccc(S(=O)(=O)O)c1)c1ccc(C(=C2C=CC(=[N+](CC)Cc3cccc(S(=O)(=O)[O-])c3)C=C2)c2ccccc2)cc1,–,inactive: 1.51% [at 42.5 µM]
CCCCCCCCCCCCCCO,inactive,–
COC(c1ccccc1)(c1ccccc1)[C@H](Oc1nc(C)cc(C)n1)C(=O)O,–,inactive: 0.831% [at 42.5 µM]
CN(C)C(=O)CNC(=O)Cc1ccccc1,–,inactive: 0.434% [at 42.5 µM]
CCCCOC(=O)c1ccc(N)cc1,inactive,–

# Assay: qHTS assay to identify small molecule antagonists of the retinoic acid receptor (RAR) signaling pathway (AID 1159552; also: nearly all actives have a fitted effect of over 50% in size)
# Settings: C3RL4 RARE luciferase reporter, retinol-stimulated, 6 h; series mostly up to 92.4 µM; activity, negative = inhibition: at the top concentration
# Summary of the method: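 Overnight-plated C3RL4 reporter cells get compound, then retinol to 1 uM final; plates sit 6 hr at 37 C, 5% CO2. A luciferase reagent is added and light output recorded after 30 min at room temperature.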
Structure (SMILES),Potency,"activity, negative = inhibition"
Cc1ccccc1C(=O)Nc1ccc(C(=O)N2CCCC(N(C)C)c3ccccc32)cc1 (stereo not drawn),"inconclusive: 10.6 µM [inhibitor, partial curve]",–
c1ccc2c(c1)ccc1c3ccccc3ccc21,–,inactive: 114% [at 42.5 µM]
C=Cc1ccc(O)c(OC)c1,"inconclusive: 77 µM [inhibitor, single point]",–
CCC(=O)OCCOc1ccccc1,–,inactive: 1.05%
C[C@@H]1CCC[C@H](C)N1CCCC(O)(c1ccccc1)c1ccccn1 (stereo partly drawn),–,inactive: 15.7% [at 42.5 µM]
O=C(O)c1ccc(C(=O)O)c(C(=O)O)c1,"inconclusive: 31.1 µM [inhibitor, partial curve, poor fit]",–
CCC(=O)O[C@@H]1C[C@H]2CC[C@]1(C)C2(C)C,–,inactive: 20.2%
CN(C(=O)CCCOc1ccc2[nH]c(=O)ccc2c1)C1CCCCC1,"inconclusive: 26.6 µM [inhibitor, single point]",–
OCc1ccc(Cl)cc1Cl,inactive,–
NCCNCCNCCN,inactive,–
CC(=O)OC/C=C(\C)CCC=C(C)C,inactive,–
Oc1ccc(O)c2c(O)cccc12,–,inactive: -14.1%
CC(=O)[C@H]1CC[C@H]2[C@@H]3C[C@H](C)C4=CC(=O)CC[C@]4(C)[C@H]3[C@@H](O)C[C@]12C,"inconclusive: 9.44 µM [inhibitor, partial curve]",–
O=C1OC(CN2CCOCC2)CN1/N=C/c1ccc([N+](=O)[O-])o1 (stereo not drawn),"inconclusive: 18.8 µM [inhibitor, partial curve]",–
CC(C)(C)NCCO,–,inactive: -3.91%
CCNC(=O)NCCCOc1cccc(CN2CCCCC2)c1,–,inactive: 57.3% [at 42.5 µM]
CCN(Cc1ccccc1)c1ccccc1,"inconclusive: 67.8 µM [inhibitor, single point]",–
CCc1cccc(N(C)C(N)=Nc2cccc3ccccc23)c1,"inconclusive: 23.7 µM [inhibitor, partial curve, poor fit]",–
O=C1CCCCCCCCCCC(=O)OCCO1,"inconclusive: 68.6 µM [inhibitor, single point]",–
C[C@]12CCC(=O)C=C1C=C[C@@H]1[C@@H]2CC[C@@]2(C)[C@H]1CC[C@@]21CCC(=O)O1,inconclusive: 26.6 µM [inhibitor],–
Cc1cc(C)c(C)c(C)c1,–,inactive: -13.2%
CC1(C)O[C@@H]2C[C@H]3[C@@H]4CCC5=CC(=O)C=C[C@]5(C)[C@H]4[C@@H](O)C[C@]3(C)[C@]2(C(=O)CO)O1,"inconclusive: 0.003 µM [inhibitor, full curve, poor fit]",–
NCc1ccco1,"inconclusive: 61.1 µM [inhibitor, single point]",–
NS(=O)(=O)c1cc(-c2nn[nH]n2)c(NCc2cccs2)cc1Cl,"inconclusive: 33.5 µM [inhibitor, partial curve, poor fit]",–
CCCCCCCCCCCCCCCCN,–,inactive: 0.51% [at 42.5 µM]
O=c1[nH][nH]c2ccccc12,"inconclusive: 31.2 µM [inhibitor, partial curve]",–
O=C(OCC1(COC(=O)c2cccnc2)CCCC(COC(=O)c2cccnc2)(COC(=O)c2cccnc2)C1O)c1cccnc1,–,inactive: 4.83% [at 42.5 µM]
CC(C)C[C@H]1C(=O)N2CCC[C@H]2[C@]2(O)O[C@](NC(=O)[C@@H]3C=C4c5cccc6[nH]c(Br)c(c56)C[C@H]4N(C)C3)(C(C)C)C(=O)N12,"inconclusive: 16.4 µM [inhibitor, partial curve]",–
O=C(Nc1ccc([N+](=O)[O-])cc1)Nc1ccc([N+](=O)[O-])cc1 (tested in a mixture with another compound),"inconclusive: 37.6 µM [inhibitor, partial curve, poor fit]",–

# Assay: qHTS assay to identify small molecule agonists of the retinoic acid receptor (RAR) signaling pathway (AID 1159553)
# Settings: C3RL4 RARE luciferase reporter, agonist, 6 h; activation: at 73.3 µM (top of the series) unless noted
# Summary of the method: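 Agonist activity was scored in C3RL4 cells bearing a retinoic acid response element luciferase construct. Cells were treated with compounds for 6 hr at 37 C, and luciferase signal was measured as luminescence.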
Structure (SMILES),Potency,activation
c1ccc2c(c1)ccc1c3ccccc3ccc21,active: 3.94 µM,–
CSc1ccc(C=O)cc1,inconclusive: 76.7 µM [activator],–
NC(Cc1c[nH]c2ccccc12)C(=O)O (stereo not drawn),–,inactive: -0.566%
OCc1ccc(Cl)cc1Cl,"inconclusive: 0.0017 µM [activator, full curve, poor fit]",inconclusive: 0.344% [phenotype inactive]
CC(C)c1ccccc1,"inconclusive: 79.9 µM [inhibitor, single point]",–
NS(=O)(=O)c1cc(-c2nn[nH]n2)c(NCc2cccs2)cc1Cl,–,inactive: 0.1%
COC(c1ccccc1)(c1ccccc1)[C@H](Oc1nc(C)cc(C)n1)C(=O)O,–,inactive: 1.11%
CCCCOC(=O)c1ccc(N)cc1,active: 26.9 µM and active: 21.1 µM,–

# Reference: PubChem BioAssay (Tox21)
